Here are results for five molecules from paper PMC8413330.

Sequences of proteins named here, by UniProt entry; tags and fusion partners are left off.
UniProt P51608: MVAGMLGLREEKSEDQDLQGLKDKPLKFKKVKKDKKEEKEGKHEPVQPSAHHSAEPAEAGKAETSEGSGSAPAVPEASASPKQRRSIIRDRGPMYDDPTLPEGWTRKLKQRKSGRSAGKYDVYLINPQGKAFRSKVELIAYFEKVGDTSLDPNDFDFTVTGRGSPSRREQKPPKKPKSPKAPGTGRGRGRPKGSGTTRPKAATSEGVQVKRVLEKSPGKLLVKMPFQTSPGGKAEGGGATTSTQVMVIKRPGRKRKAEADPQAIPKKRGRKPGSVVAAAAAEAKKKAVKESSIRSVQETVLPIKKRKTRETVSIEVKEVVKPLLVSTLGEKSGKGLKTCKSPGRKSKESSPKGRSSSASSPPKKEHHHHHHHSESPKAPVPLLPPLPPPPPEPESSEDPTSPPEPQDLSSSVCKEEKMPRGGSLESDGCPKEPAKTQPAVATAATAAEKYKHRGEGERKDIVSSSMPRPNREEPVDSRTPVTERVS
UniProt Q9Y265: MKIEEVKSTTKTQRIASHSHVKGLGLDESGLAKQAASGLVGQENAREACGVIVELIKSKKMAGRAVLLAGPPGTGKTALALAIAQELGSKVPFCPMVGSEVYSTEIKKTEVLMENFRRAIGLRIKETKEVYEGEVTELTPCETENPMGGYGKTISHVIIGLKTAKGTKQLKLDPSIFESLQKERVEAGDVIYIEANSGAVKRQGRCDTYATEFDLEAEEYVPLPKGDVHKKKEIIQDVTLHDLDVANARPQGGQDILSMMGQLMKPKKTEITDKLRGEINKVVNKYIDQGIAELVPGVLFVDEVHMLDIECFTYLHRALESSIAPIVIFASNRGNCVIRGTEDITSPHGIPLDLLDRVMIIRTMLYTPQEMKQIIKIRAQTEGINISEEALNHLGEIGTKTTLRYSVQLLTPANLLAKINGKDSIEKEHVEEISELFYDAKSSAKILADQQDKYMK

Results are given in words; binding and its absence hold for the method and conditions named. Binding seen in cells or lysates may run through a third protein. Some binding calls cover weakened binding; strength is not graded here. For part of these data: Where a sequence is shown, tags or fusion partners need not be part of it.

The target of experiment [1] is HA-MeCP2 (UniProt P51608). In words: co-IP; nuclear extracts (500 ug, NE-PER) of transiently co-transfected HEK293 cells (48 h); HA antibody or isotype-matched IgG with protein A and G magnetic beads at 4 °C; washes in 150 mM NaCl, 10 mM HEPES pH 7.5, 10 mM MgCl2, 0.5% Igepal; WB with the Flag or HA antibody.
For experiment [2], the target named is HA-MeCP2 (UniProt P51608). Put plainly: proximity ligation; Duolink In Situ Red kit on fixed, permeabilized HEK293 cells transiently co-transfected; Flag and HA antibodies; fluorescence microscopy.
Experiment [3] deals with T1, HA-MAZ (human (cDNA library from MCF7 cells)) (UniProt P56270).
T1 sequence: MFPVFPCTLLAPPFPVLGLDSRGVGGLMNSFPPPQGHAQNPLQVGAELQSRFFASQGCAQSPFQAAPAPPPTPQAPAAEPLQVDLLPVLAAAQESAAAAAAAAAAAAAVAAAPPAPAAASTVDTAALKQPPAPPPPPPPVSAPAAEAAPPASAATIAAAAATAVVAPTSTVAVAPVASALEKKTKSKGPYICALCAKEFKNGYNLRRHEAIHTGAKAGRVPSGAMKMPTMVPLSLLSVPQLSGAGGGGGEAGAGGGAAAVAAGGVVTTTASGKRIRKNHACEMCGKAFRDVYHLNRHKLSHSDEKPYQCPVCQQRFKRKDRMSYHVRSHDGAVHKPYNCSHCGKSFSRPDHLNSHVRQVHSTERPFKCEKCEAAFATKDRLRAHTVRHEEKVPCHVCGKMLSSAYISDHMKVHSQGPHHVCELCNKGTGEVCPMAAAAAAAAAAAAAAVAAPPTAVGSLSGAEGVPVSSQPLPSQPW
In words: co-IP; nuclear extracts (500 ug, NE-PER) of transiently co-transfected HEK293 cells (48 h); HA antibody or isotype-matched IgG with protein A and G magnetic beads at 4 °C; washes in 150 mM NaCl, 10 mM HEPES pH 7.5, 10 mM MgCl2, 0.5% Igepal; WB with the Flag or HA antibody.

Experiment [4] addresses T2, SNW1 (SNW Domain Containing 1), transfected (UniProt Q13573).
T2 sequence: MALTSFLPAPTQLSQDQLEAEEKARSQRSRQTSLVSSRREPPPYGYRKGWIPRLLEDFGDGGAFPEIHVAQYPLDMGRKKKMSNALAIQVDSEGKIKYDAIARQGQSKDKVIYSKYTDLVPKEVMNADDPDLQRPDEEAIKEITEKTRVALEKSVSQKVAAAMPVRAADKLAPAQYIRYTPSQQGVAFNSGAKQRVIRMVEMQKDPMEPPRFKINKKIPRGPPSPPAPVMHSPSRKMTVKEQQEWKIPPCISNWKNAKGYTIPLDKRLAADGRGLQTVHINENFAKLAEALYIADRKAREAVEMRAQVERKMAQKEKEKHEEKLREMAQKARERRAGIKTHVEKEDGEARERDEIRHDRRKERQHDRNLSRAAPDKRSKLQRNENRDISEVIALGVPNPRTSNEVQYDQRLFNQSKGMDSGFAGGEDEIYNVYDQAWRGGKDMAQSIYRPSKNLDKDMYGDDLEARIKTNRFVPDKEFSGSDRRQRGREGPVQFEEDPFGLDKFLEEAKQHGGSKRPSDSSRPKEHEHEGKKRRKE
Described as above.

Experiment [5] concerns the target RUVBL1 (RuvB Like AAA ATPase 1), transfected (UniProt Q9Y265). Described as above.
Experiment [6] has as its target T3, LAP2α (Thymopoietin; Lamina-Associated Polypeptide 2, Isoform alpha), transfected (UniProt P42166).
T3 sequence: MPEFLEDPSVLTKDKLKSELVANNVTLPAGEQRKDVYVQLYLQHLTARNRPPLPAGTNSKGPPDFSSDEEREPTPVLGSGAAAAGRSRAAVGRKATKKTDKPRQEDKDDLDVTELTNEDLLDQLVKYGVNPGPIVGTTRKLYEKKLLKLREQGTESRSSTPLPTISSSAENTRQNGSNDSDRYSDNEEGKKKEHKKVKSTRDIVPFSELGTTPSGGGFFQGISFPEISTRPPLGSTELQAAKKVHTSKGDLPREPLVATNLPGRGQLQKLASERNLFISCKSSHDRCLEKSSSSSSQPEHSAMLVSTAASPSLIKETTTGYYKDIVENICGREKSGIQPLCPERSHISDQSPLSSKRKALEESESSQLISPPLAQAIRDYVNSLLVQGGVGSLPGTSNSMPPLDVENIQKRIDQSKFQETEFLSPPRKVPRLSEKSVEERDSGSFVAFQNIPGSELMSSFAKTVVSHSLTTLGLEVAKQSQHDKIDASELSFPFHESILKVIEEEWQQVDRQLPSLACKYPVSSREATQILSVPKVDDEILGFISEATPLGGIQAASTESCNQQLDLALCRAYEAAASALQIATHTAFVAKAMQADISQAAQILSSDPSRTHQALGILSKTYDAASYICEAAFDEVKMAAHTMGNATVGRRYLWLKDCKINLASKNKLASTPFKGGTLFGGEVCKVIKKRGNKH
The experiment is described as above.

The next experiment concerns the target T4, HA-EMD (UniProt P50402).
T4 sequence: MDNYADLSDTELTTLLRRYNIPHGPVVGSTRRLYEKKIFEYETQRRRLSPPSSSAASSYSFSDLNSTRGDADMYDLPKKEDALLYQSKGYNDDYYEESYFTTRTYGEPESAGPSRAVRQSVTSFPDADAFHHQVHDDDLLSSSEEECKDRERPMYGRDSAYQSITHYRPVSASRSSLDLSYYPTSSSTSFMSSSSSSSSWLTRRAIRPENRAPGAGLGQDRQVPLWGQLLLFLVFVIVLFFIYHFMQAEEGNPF
The description is as above.

For a further experiment, the target named is T5, HA-MAZΔN (UniProt P56270).
T5 sequence: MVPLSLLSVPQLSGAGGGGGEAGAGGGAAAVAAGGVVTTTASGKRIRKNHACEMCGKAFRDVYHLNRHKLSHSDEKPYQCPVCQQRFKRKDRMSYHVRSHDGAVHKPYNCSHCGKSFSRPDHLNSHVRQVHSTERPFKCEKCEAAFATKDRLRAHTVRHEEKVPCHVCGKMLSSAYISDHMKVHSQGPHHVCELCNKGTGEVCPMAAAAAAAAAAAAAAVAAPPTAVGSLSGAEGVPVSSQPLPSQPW
The description is as above.

B1: 3F-CXXC5Δ_(1-100) (domain or fragment, UniProt Q7LFL8 101-322)
chain: SADKATAAAAAASLLANGHDLAAAMAVDKSNPTSKHKSGAVASLLSKAERATELAAEGQLTLQQFAQSTEMLKRVVQEHLPLMSEAGAGLPDMEAVAGAEALNGQSDFPYLGAFPINPGLFIMTPAGVFLAESALHMAGLAEYPMQGELASAISSGKKKRKRCGMCAPCRRRINCEQCSSCRNRKTGHQICKFRKCEELKKKPSAALEKVMLPTGAAFRWFQ
Turning to B1, the binding entry with HA-MeCP2 [1] is “binds”.

B2: 3F-CXXC5Δ_(100-149) (protein, UniProt Q7LFL8)
chain: MSSLGGGSQDAGGSSSSSTNGSGGSGSSGPKAGAADKSAVVAAAAPASVADDTPPPERRNKSGIISEPLNKSLRRSRPLSHYSSFGSSGGSGGGSMMGGRATELAAEGQLTLQQFAQSTEMLKRVVQEHLPLMSEAGAGLPDMEAVAGAEALNGQSDFPYLGAFPINPGLFIMTPAGVFLAESALHMAGLAEYPMQGELASAISSGKKKRKRCGMCAPCRRRINCEQCSSCRNRKTGHQICKFRKCEELKKKPSAALEKVMLPTGAAFRWFQ
For the molecule B2, in the experiment with HA-MeCP2 [1], the binding result is given as “binds”.

B3: 3F-CXXC5 (protein, UniProt Q7LFL8 1-322)
chain: MSSLGGGSQDAGGSSSSSTNGSGGSGSSGPKAGAADKSAVVAAAAPASVADDTPPPERRNKSGIISEPLNKSLRRSRPLSHYSSFGSSGGSGGGSMMGGESADKATAAAAAASLLANGHDLAAAMAVDKSNPTSKHKSGAVASLLSKAERATELAAEGQLTLQQFAQSTEMLKRVVQEHLPLMSEAGAGLPDMEAVAGAEALNGQSDFPYLGAFPINPGLFIMTPAGVFLAESALHMAGLAEYPMQGELASAISSGKKKRKRCGMCAPCRRRINCEQCSSCRNRKTGHQICKFRKCEELKKKPSAALEKVMLPTGAAFRWFQ
On to B3, for which the binding result is “binds” with HA-MeCP2 [2]; “binds” in experiment [3]; “no binding” in experiment [4]; “no binding” in experiment [5]; “no binding” in experiment [6]; “binds” in the experiment with HA-EMD. Moreover, the binding result with HA-MAZΔN and with HA-MeCP2 [1] was “binds” each time.

B4: 3F-CXXC5Δ_(200-249) (protein, UniProt Q7LFL8)
chain: MSSLGGGSQDAGGSSSSSTNGSGGSGSSGPKAGAADKSAVVAAAAPASVADDTPPPERRNKSGIISEPLNKSLRRSRPLSHYSSFGSSGGSGGGSMMGGESADKATAAAAAASLLANGHDLAAAMAVDKSNPTSKHKSGAVASLLSKAERATELAAEGQLTLQQFAQSTEMLKRVVQEHLPLMSEAGAGLPDMEAVAGAASAISSGKKKRKRCGMCAPCRRRINCEQCSSCRNRKTGHQICKFRKCEELKKKPSAALEKVMLPTGAAFRWFQ
In the case of B4, the binding result with HA-MeCP2 [1] is reported as “binds”.

B5: 3F-CXXC5Δ_(150-199) (protein, UniProt Q7LFL8)
chain: MSSLGGGSQDAGGSSSSSTNGSGGSGSSGPKAGAADKSAVVAAAAPASVADDTPPPERRNKSGIISEPLNKSLRRSRPLSHYSSFGSSGGSGGGSMMGGESADKATAAAAAASLLANGHDLAAAMAVDKSNPTSKHKSGAVASLLSKAEEALNGQSDFPYLGAFPINPGLFIMTPAGVFLAESALHMAGLAEYPMQGELASAISSGKKKRKRCGMCAPCRRRINCEQCSSCRNRKTGHQICKFRKCEELKKKPSAALEKVMLPTGAAFRWFQ
For the molecule B5, the binding result in the experiment with HA-MeCP2 [1] is on record as “binds”.
